This is an account of results in the antibiotic and cytotoxicity screens of Wong et al. (2023).

The subject of test [1] is HSkMC (human skeletal muscle cells). Put plainly: cytotoxicity call (relative viability < 0.9). The conditions noted are these: 10 µM.
Test [2] concerns HepG2. Nature of the test: cytotoxicity call (relative viability < 0.9). The conditions noted are these: 10 µM.
The subject of test [3] is S. aureus RN4220. Nature of the test: growth inhibition call (relative growth <= 0.2). To be noted: 50 µM.

This is one part of the list.

Turning to `N=C(N)NCCC[C@@H](NC(=O)CC1(CC(=O)N2CCN([C@H]3c4ccccc4NC(=O)c4ccccc43)CC2)CCCC1)C(=O)NCCn1c(=O)n(-c2ccccc2)n(-c2ccccc2)c1=O`, the cytotoxicity call in test [1] and in test [2] was “inactive” throughout. The growth inhibition call in test [3] was “active”.
Regarding `COc1cccc(NC(=O)N2C[C@H](O)COC[C@@H]3O[C@H](CC(=O)NC4Cc5ccccc5C4)CC[C@H]32)c1`, the cytotoxicity call in test [1] and in test [2] was “inactive” throughout. For the same molecule, in test [3], the growth inhibition call is “inactive”.
As for `CCNC(=O)NS(=O)(=O)c1sc(CC(C)C)cc1-c1ccc(Cn2c(-c3ccccc3)nc(OC)c2C=O)cc1`, the cytotoxicity call in test [1] and in test [2] was “inactive” each time. The growth inhibition call in test [3] is “inactive”.
Consider `C[C@@H]1CCCCO[C@@H](CN(C)CC2CCCCC2)[C@@H](C)CN([C@H](C)CO)C(=O)c2cc(NC(=O)c3ccccc3)ccc2O1`, for which the cytotoxicity call in test [1] is “inactive”. In test [2], the cytotoxicity call was “active”. In addition, in test [3], the growth inhibition call was “inactive”.
For the molecule `Cn1c(=O)c2c(ncn2C[C@@H](O)CO)n(C)c1=O`, the cytotoxicity call in test [1] and in test [2] was “inactive” each time. Moreover, the growth inhibition call in test [3] is “inactive”.
Turning to `O=C(N[C@H]1C=C[C@@H](CC(=O)N2CCOCC2)O[C@H]1CO)c1ccc2c(c1)OCO2`, the cytotoxicity call in test [1] and in test [2] was “inactive” in each case. In test [3], the growth inhibition call was “inactive”.
In the case of `CCc1cnc2c(c1OC)c(=O)n(CC(=O)NCCOC)c(=O)n2C`, the cytotoxicity call in test [1] and in test [2] was “inactive” each time. In addition, in test [3], the growth inhibition call is “inactive”.
In the case of `C[C@H]1CCCCO[C@H](CN(C)Cc2ccccc2)[C@@H](C)CN([C@@H](C)CO)C(=O)c2cc(NC(=O)Nc3ccc4c(c3)OCO4)ccc2O1`, the cytotoxicity call in test [1] and in test [2] was “inactive” throughout. For the same molecule, the growth inhibition call in test [3] is “inactive”.
As to `C[C@@H]1CN([C@@H](C)CO)C(=O)c2cc(NC(=O)C3CCCCC3)ccc2O[C@@H](C)CCCCO[C@H]1CN(C)Cc1ccc2c(c1)OCO2`, the cytotoxicity call in test [1] and in test [2] was “inactive” each time. For the same molecule, the growth inhibition call in test [3] is “inactive”.
For `COc1ccc(S(=O)(=O)N[C@H]2CC[C@@H](CC(=O)N3CCN(c4ccccc4)CC3)O[C@@H]2CO)cc1`, the cytotoxicity call in test [1] and in test [2] was “inactive” each time. Further, the growth inhibition call in test [3] is “inactive”.
Turning to `COCC(=O)Nc1ccc2c(c1)OC[C@H](C)N(Cc1ccccc1F)C[C@H](C)[C@H](OC)CN(C)C2=O`, the cytotoxicity call in test [1] and in test [2] was “inactive” each time. Also, the growth inhibition call in test [3] was “inactive”.
For the molecule `COC(=O)C1=CO[C@@H](O[C@@H]2O[C@H](CO)[C@@H](O)[C@H](O)[C@H]2O)[C@@H]2[C@@H](C)[C@@H](O)[C@@H](OC(=O)/C=C/c3ccc(O)c(O)c3)[C@H]12`, the cytotoxicity call in test [1] and in test [2] was “inactive” throughout. Besides, in test [3], the growth inhibition call is “inactive”.
For `C[C@H](CO)N1C[C@H](C)[C@@H](CN(C)C(=O)Cc2ccccc2)OCCCC[C@H](C)Oc2ccc(NC(=O)Nc3ccccc3)cc2C1=O`, the cytotoxicity call in test [1] and in test [2] was “inactive” in each case. Besides, in test [3], the growth inhibition call was “inactive”.
On to `Cc1ccc(S(=O)(=O)Nc2ccc3c(c2)CC(=O)N([C@@H](C)CO)C[C@@H](C)[C@@H](CN(C)Cc2ccc(Cl)c(Cl)c2)O3)cc1`, for which the cytotoxicity call in test [1] and in test [2] was “active” each time. Also, the growth inhibition call in test [3] is “inactive”.
As for `COCC#Cc1cnc2c(c1)C(=O)N([C@H](C)CO)C[C@@H](C)[C@H](CN(C)C(=O)CCN1CCCCC1)O2`, the cytotoxicity call in test [1] and in test [2] was “inactive” each time. The growth inhibition call in test [3] was “inactive”.
In the case of `COc1ccc(C#Cc2ccc3c(c2)[C@]2(C(=O)N3)[C@H](c3ccccc3OCCO)N3[C@H](c4ccccc4)[C@H](c4ccccc4)OC(=O)[C@H]3[C@@H]2C(=O)N2CCc3cc(OC)c(OC)cc3C2)cc1`, the cytotoxicity call in test [1] and in test [2] was “inactive” in each case. The growth inhibition call in test [3] was “inactive”.
`C[C@H]1CN([C@@H](C)CO)C(=O)c2cc(NC(=O)Nc3ccc4c(c3)OCO4)ccc2O[C@@H]1CN(C)S(C)(=O)=O`: the cytotoxicity call in test [1] and in test [2] was “inactive” in each case. For the same molecule, the growth inhibition call in test [3] was “inactive”.
`C[C@@H]1CN([C@@H](C)CO)C(=O)Cc2cc(NS(C)(=O)=O)ccc2O[C@@H]1CN(C)Cc1ccc(C(=O)Nc2ccccc2N)cc1`: the cytotoxicity call in test [1] and in test [2] was “inactive” throughout. Moreover, in test [3], the growth inhibition call was “inactive”.
Regarding `CON=C(C(=O)N[C@@H]1C(=O)N2C(C(=O)O)=C(CSc3nc(=O)c(O)nn3C)CS[C@H]12)c1csc(N)n1`, the cytotoxicity call in test [1] and in test [2] was “inactive” each time. Moreover, in test [3], the growth inhibition call was “active”.
Regarding `CC(C)NC(=O)N[C@H]1C=C[C@H](CC(=O)NCCN2CCCC2)O[C@H]1CO`, the cytotoxicity call in test [1] and in test [2] was “inactive” each time. Further, the growth inhibition call in test [3] was “inactive”.
As for `O=C(O)CCc1n[nH]c(=O)[nH]c1=O`, the cytotoxicity call in test [1] and in test [2] was “inactive” in each case. Also, the growth inhibition call in test [3] is “inactive”.
Turning to `COc1cc(CCC(=O)O)oc(=O)c1`, the cytotoxicity call in test [1] and in test [2] was “inactive” in each case. The growth inhibition call in test [3] was “inactive”.
Turning to `COc1cccc(C#Cc2ccc3c(c2)O[C@@H](CN(C)C(C)=O)[C@H](C)CN([C@@H](C)CO)S3(=O)=O)c1`, the cytotoxicity call in test [1] and in test [2] was “inactive” each time. In addition, in test [3], the growth inhibition call was “inactive”.
Regarding `C[C@H]1CN([C@@H](C)CO)C(=O)c2cc(NC(=O)Cn3cnnn3)ccc2O[C@@H]1CN(C)Cc1ccccc1`, the cytotoxicity call in test [1] and in test [2] was “inactive” in each case. Moreover, in test [3], the growth inhibition call is “inactive”.
`COc1ccc(NC(=O)N(C)C[C@@H]2OCCCC[C@H](C)Oc3ccc(NC(=O)Nc4c(C)noc4C)cc3C(=O)N([C@@H](C)CO)C[C@H]2C)cc1`: the cytotoxicity call in test [1] and in test [2] was “inactive” each time. In addition, the growth inhibition call in test [3] was “inactive”.
